In assay [1] the target is HA-PRMT5 (UniProt O14744). Description: co-IP; HEK293T cells transfected with HA-PRMT5 and FLAG-Smad7 without MYC-MEP50; lysate immunoprecipitated with HA antibody, Western blot.
In assay [2] the target is HA-PRMT5 (UniProt O14744). The assay is described as follows: co-IP; HEK293T cells transfected with HA-PRMT5, MYC-MEP50 and FLAG-Smad7 or a Smad7 domain; lysate immunoprecipitated with HA antibody, Western blot (Figures 2A, 2C). On the technique in general: A western blot detects proteins with antibodies after separation by electrophoresis.
The target of assay [3] is GST-Smad7 (UniProt O15105). Description: pull-down; GST or GST-Smad7 on glutathione-sepharose beads incubated with HEK293T cells expressing MYC-tagged PRMT5/MEP50; bound proteins by Western blot; only the target purified.
The target of assay [4] is SFB-Smad7 (MCF10A tet-on cells) (UniProt O15105). Description: co-IP; MCF10A-tet-on cells, SFB-Smad7 induced with or without 500 ng/mL Dox for 3 d, treated with 25 ng/mL IL-6 for the indicated time; lysate precipitated with streptavidin beads, Western blot.
For assay [5] the target is unchanged. The assay is described as follows: condition: only without Dox (SFB-Smad7 not induced); co-IP; MCF10A-tet-on cells, SFB-Smad7 induced with or without 500 ng/mL Dox for 3 d, treated with 25 ng/mL IL-6 for the indicated time; lysate precipitated with streptavidin beads, Western blot.

The chains behind the UniProt entries cited, without tags or fusion partners. Where a name states a change or a piece, a line headed by the entry shows the natural chain unless it says otherwise.
UniProt O14744: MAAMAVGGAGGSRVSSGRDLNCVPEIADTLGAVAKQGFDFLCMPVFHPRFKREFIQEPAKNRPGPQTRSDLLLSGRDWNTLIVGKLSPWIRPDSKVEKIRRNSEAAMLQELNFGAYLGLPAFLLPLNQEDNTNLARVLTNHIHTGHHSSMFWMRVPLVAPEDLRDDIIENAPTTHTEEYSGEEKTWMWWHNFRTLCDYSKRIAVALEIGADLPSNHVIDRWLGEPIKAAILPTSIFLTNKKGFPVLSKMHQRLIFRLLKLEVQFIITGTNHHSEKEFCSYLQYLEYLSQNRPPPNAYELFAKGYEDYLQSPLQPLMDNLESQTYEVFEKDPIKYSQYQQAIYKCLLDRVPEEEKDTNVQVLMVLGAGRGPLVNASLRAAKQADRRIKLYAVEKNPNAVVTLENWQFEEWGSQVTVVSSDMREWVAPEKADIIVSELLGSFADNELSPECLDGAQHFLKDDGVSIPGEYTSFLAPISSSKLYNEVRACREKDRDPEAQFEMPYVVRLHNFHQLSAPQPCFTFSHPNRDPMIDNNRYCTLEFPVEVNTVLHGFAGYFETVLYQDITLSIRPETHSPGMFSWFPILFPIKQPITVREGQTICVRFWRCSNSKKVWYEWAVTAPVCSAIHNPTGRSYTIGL
UniProt O15105: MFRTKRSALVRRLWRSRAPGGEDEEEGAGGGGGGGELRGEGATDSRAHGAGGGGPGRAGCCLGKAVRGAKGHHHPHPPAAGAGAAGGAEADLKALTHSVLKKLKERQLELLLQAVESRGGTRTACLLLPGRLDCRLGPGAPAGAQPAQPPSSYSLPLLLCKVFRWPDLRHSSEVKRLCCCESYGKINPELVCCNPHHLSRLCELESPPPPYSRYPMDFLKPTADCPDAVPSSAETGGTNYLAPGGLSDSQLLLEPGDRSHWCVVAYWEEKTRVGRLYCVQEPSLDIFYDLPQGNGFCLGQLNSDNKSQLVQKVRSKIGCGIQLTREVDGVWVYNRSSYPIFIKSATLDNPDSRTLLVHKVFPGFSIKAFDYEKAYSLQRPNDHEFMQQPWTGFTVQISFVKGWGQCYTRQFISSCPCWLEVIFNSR
UniProt Q9BQA1: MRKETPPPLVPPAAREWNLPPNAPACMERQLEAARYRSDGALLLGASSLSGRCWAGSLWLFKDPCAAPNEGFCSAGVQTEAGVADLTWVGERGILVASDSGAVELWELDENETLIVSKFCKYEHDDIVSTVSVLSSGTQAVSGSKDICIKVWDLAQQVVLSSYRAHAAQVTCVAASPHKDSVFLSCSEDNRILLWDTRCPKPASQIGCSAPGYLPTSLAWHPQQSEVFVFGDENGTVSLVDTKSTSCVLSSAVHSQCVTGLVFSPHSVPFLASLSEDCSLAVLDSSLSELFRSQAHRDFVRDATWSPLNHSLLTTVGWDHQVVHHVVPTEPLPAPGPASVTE

Our source for the binding values is publication PMC8132155.

No constants are given. Whether binding was seen depends on the method and setting. In cells and extracts the contact can be indirect. Some entries that bind do so weakly or less than the wild type.

For FLAG-Smad7 (from UniProt O15105 1-426), the binding result is “binds weakly” in assay [1] and “binds” in assay [2].

Take MYC-MEP50 (from UniProt Q9BQA1 1-342): the binding result in assay [3] is “binds”. On the same count and under the same terms, the same measure for “MYC-PRMT5 (from UniProt O14744 1-637) (enzyme)”: “binds”. For the substance “Smad7 MH1 domain (aa 1-228) (from UniProt O15105 1-228) (domain or fragment)”, the binding entry in assay [2] was “no binding”. The same measure, in the same setting: the same measure for “Smad7-MH2 (aa 228-426) (from UniProt O15105 228-426) (domain or fragment)”: “binds”. Regarding “endogenous PRMT5 (MCF10A) (from UniProt O14744 1-637) (enzyme)”, the binding entry in assay [4] is “binds”; in assay [5], “no binding”.
